Reference: PubChem BioAssay AID1721 (National Center for Advancing Translational Sciences (NCATS), 2009)
In all, about 290,000 compounds went through this assay and about 1,100 (0.38%) were called active. The shares of active, inactive and inconclusive entries below differ from those in the screen. Calls follow the shape of the dose curve; as a rule, active = well fitted inhibition curve with a large enough effect; inconclusive = small, poorly fitted or top-dose-only effect, or another doubt; inactive = no such curve, though single readings can be large or run the other way. A potency beside an inconclusive call is a rough fit, not a confirmed value.

Biological target: Pyruvate kinase (Leishmania mexicana) (UniProt Q27686)
Experiment: qHTS Assay for Inhibitors of Leishmania Mexicana Pyruvate Kinase (LmPK)
Conditions: purified LmPK, Kinase-Glo ATP luminescence, 1 h; activity change, negative = inhibition: at 57.5 µM (top of the series) unless noted
From the text: NIH Chemical Genomics Center [NCGC] Malcolm Walkinshaw, Hugh Morgan, Linda Gilmore University of Edinburgh, UK MLPCN Grant: 1 R03 MH085697-01 NCGC Assay Overview: Pyruvate kinase (L. Mexicana) (LmPK) enzyme was supplied as a highly purified (>95% pure) sulphate-free preparation from University of Edinburgh, UK and assayed for its ability to generate ATP from ADP using phosphoenolpyruvate (PEP) as a substrate. ATP generation was detected in a coupled reaction by luciferase-mediated luminescence, an ATP-dependent process. […] The enzyme was assayed at an intermediate level of activity to screen for both inhibitors and activators.
NCGC Assay Protocol Summary: Three uL of enzyme mix (kept on ice) in assay buffer (50 mM Imidazole pH7.2, 50 mM KCl, 7 mM MgCl2, 0.01% Tween 20, 0.05% BSA) containing PEP (0.5 mM final concentration) and LmPK (0.1 nM final concentration) was dispensed into white solid bottom 1,536 well microtiter plates. 23 nL of compound were delivered by a pin tool and 1 uL of ADP mix in assay buffer (r.t; 0.1 mM final ADP concentration) was added. Plates were incubated at room temperature for 1 hour. Two uL of detection mix (Kinase-Glo, Promega; at 4 degree Celsius protected from light) was added and luminescence read by a ViewLux (Perkin Elmer) at 1 second exposure/plate. Data were normalized to the uninhibited and AC100 inhibition (no enzyme). To monitor activation, the first column contained a five-fold concentration of LmPK (0.5 nM).
% is scaled to controls: 0 for no effect and ±100 for the full control effect; potency is read from the fitted curve at half-maximal effect; tags tell the direction and shape of the fitted curve.

Chain of UniProt Q27686 (Q27686 whole entry, looked up): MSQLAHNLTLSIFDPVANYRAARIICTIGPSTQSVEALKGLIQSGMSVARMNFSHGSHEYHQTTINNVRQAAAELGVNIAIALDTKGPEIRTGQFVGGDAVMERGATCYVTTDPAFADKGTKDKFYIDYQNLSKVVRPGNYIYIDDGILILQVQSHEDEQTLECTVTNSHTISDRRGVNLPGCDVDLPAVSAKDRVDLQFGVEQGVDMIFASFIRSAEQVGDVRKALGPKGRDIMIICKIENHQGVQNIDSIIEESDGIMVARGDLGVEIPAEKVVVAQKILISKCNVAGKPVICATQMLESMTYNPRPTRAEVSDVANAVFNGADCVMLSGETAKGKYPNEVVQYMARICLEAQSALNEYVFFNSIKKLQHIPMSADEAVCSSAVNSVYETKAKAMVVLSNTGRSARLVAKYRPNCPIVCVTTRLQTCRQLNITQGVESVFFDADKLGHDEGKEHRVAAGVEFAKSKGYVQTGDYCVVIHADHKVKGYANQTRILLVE

| SMILES | Potency | activity change, negative = inhibition |
| --- | --- | --- |
| CN(C)c1ccc(/C=C(\C#N)C(=O)c2ccccc2)cc1 | inconclusive: 35.5 µM [falling, single point] | – |
| CN1CCN(C(=O)C2CC(c3c(F)cccc3Cl)=NO2)CC1 (centres undefined) | – | inactive: 2.15% |
| CCOCCCn1c(-c2ccc(Cl)cc2)n[nH]c1=S | inconclusive: 20 µM [falling, partial curve] | – |
| COc1ccc(OC)c(N2C(=O)NC(=O)/C(=C/c3ccc([N+](=O)[O-])s3)C2=O)c1 | inconclusive: 35.5 µM [falling, single point] | – |
| CCOC(=O)c1c(C)n(C)c2cc(Br)c(O)c(O)c12 | inconclusive: 5.01 µM [falling, partial curve] | – |
| Cc1ccnc(N2C(=O)c3ccccc3C2O)c1 (centres undefined) | inconclusive: 17.8 µM [falling, partial curve] | – |
| Cc1cc(C(=O)N/N=C/c2ccccc2)c(C)o1 | inconclusive: 25.1 µM [falling, partial curve] | – |
| Cc1nc(SCc2ccc(O)c([N+](=O)[O-])c2)c([N+](=O)[O-])[nH]1 | inconclusive: 15.8 µM [falling, partial curve] | – |
| Cc1ccc(C(C)(C)NC(=O)C2CCC(=O)N(C3CCCCCC3)C2)cc1 (centres undefined) | – | inactive: -9.84% |
| S=c1[nH]nc(-c2ccc(Br)cc2)n1-c1ccc(Br)cc1 | inconclusive: 39.8 µM [falling, single point] | – |
| COCCN1C=C(C(=O)OC)C(c2cc3c(cc2Br)OCO3)C(C(=O)OC)=C1 | – | inactive: 2.9% |
| COc1ccc(C(=O)N/N=C/c2ccc(OC)c(COc3ccc(F)cc3F)c2)cc1 | – | inactive: -3.85% |
| Clc1nccnc1N/N=C/c1ccc(Br)cc1 | active: 17.8 µM | – |
| Cc1oc(-c2cc(F)ccc2F)nc1CN1CCCN(C(=O)c2ccco2)CC1 | – | inactive: 4.19% |
| COc1ccc(-n2c(-c3cccc(C)c3[N+](=O)[O-])n[nH]c2=S)cc1 | inconclusive: 11.2 µM [falling, partial curve] | – |
| O=C(NC(=O)c1ccccc1O)c1ccc2c(c1)CCO2 | inconclusive: 17.8 µM [falling, partial curve] | – |
| Cc1ccc(-c2n[nH]c(=S)n2Cc2ccccc2)cc1 | active: 12.6 µM | – |
| CSc1ccccc1C(=O)Nc1ccc(C)c(C)c1 | inconclusive: 14.1 µM [falling, partial curve] | – |
| Cc1nn(-c2ccccc2)c(C)c1/C=N/Nc1nc2ccccc2[nH]1 | inconclusive: 20 µM [falling, partial curve] | – |
| Cc1ccc(S(=O)(=O)N2CCCC2C(=O)NCc2ccccc2F)cc1 (centres undefined) | – | inactive: -1.97% |
| CCC(Oc1ccccc1)C(=O)Nc1ccccc1C(=O)N1CCOCC1 (centres undefined) | – | inactive: -4.18% |
| CC(=O)NC1=NC(=O)/C(=C/c2cc(C)n(-c3ccc(NC(C)=O)cc3)c2C)S1 | inconclusive: 39.8 µM [falling, single point] | – |
| N/C(=N\OC(=O)c1ccc(Cl)cc1)c1[nH]ncc1Br | active: 10 µM | – |
| Cc1cc(=O)[nH]c(N=N/C(=N/Nc2ccccc2C)c2ccccc2)n1 | inconclusive: 22.4 µM [falling, single point] | – |
| Cc1ccc(-c2nc3ccccc3nc2NN)cc1 | inconclusive: 31.6 µM [falling, single point] | – |

| SMILES | Potency | activity change, negative = inhibition |
| --- | --- | --- |
| CC1=C/C(=C(/c2cc(C)c(O)c(Br)c2)c2ccccc2S(=O)(=O)O)C=C(Br)C1=O | active: 20 µM | – |
| CCc1ccc2nc3sc(C(=O)Nc4nnc(CC)s4)c(N)c3cc2c1 | inconclusive: 22.4 µM [falling, single point] | – |
| Cn1c(=O)c(C(=O)CN2CCCCCC2)c(N)n(Cc2ccccc2)c1=O | – | inactive: 4.02% |
| COc1cc(/C=C/c2sc3ccccc3[n+]2CCCS(=O)(=O)[O-])ccc1O | active: 15.8 µM | – |
| CCCCOc1ccc(-c2cnc3ccccc3n2)cc1 | inconclusive: 15.8 µM [falling, partial curve] | – |
| O=C(NC1CCCCC1)c1cc(-c2ccc(Cl)cc2)on1 | – | inactive: 0.035% |
| CCCc1ccc(-c2ccc(F)c(N)c2)nc1 | active: 15.8 µM | – |
| CC(C)[C@@H](CO)NC(=O)c1ccc2c3n(nc2c1)-c1ccccc1CO3 | active: 14.1 µM | – |
| O=C1N=c2ccccc2=C1c1sc(Nc2cccc(O)c2)nc1O | – | inactive: -12.8% |
| Cc1c(Cl)cccc1NC(=O)Nc1ccc(C(=O)N2CCCC2)cc1 | inconclusive: 10 µM [falling, partial curve] | – |
| Cc1c(C(=O)O)oc2ccc(S(=O)(=O)NCCC3=CCCCC3)cc12 | – | inactive: 2.72% |
| O=c1c(Cl)c(N2CCCCC2)cnn1-c1nc2ccccc2[nH]1 | active: 14.1 µM | – |
| S=c1[nH]nc(CCc2ccccc2)n1-c1ccc(Cl)cc1 | inconclusive: 20 µM [falling, partial curve] | – |
| COC(=O)C(C(C)=O)C1=C/C(=N\S(=O)(=O)c2ccc(C)cc2)c2ccccc2C1=O (centres undefined) | inconclusive: 28.2 µM [falling, partial curve] | – |
| Cc1ccc(C(=O)Cn2nc(C)c([N+](=O)[O-])c2C)c(C)c1 | – | inactive: 1.02% |
| Fc1cccc(/C=N/Nc2nccnc2Cl)c1 | inconclusive: 17.8 µM [falling, partial curve] | – |
| COc1ccccc1-n1c(-c2ccc(NS(C)(=O)=O)cc2)n[nH]c1=S | active: 7.94 µM | – |
| CCN(CC)c1ccc2c(-c3ccc(S(=O)(=O)O)cc3S(=O)(=O)[O-])c3ccc(=[N+](CC)CC)cc-3oc2c1 | inconclusive: 15.8 µM [falling, partial curve] | – |
| CCC(=O)Nc1cccc(-c2nnc(SCC(=O)c3ccccc3)n2C)c1 | inconclusive: 17.8 µM [falling, partial curve] | – |
| CCOc1ccc(CN(CCC#N)C(=S)NC(=O)c2ccccc2)cc1 | inconclusive: 14.1 µM [falling, partial curve] | – |
| Cc1cc(C)c2c(N)c(C(=O)Nc3ccccc3F)sc2n1 | – | inactive: -1.6% |
| COc1cc(/C=N/NC(=O)c2nonc2C)ccc1O | active: 14.1 µM | – |
| N/C(=N\OC(=O)c1ccccc1)c1cccnc1 | inconclusive: 28.2 µM [falling, single point] | – |
| Cc1cccc(C(=O)Nc2cccc(OCC(=O)O)c2)c1 | inconclusive: 25.1 µM [falling, partial curve] | – |
